Experimental data taken from article PMC5892938.
The list shows a part of the results. At the low end of the ranking the order means little.

Each sequence was assayed against GST-SBP-SLBP (stem-loop binding protein) (UniProt Q14493) (assay: targeted RNA Bind-n-Seq). Conditions: RBNS binding buffer: 25 mM Tris pH 7.5, 150 mM KCl, 3 mM MgCl2, 0.1% Tween, 0.5 mg/mL BSA, 1 mM DTT; 27 nM protein, 750 pM RNA pool; temperature not stated; high values mean tight binding.
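Also: DESeq read counts versus GST-SBP nonspecific binding control pulldown.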

Sequence | binding signal (log2 fold change)
GGUCACGUCUCAAUCAACUCAUCUUCAGGAGUUUCCUCCUGUUUAUUCAACAGCUCGCAGUCAAG | -0.0211
GGUCACGUCUCAAUCAACUCAAUCGCAGGAGUUUCCUCCUGGUUAUUCAACAGCUCGCAGUCAAG | 0.0382
GGUCACGUCUCAAUCAACUCAUUCCCAGGAGUUUGCUCCUGCAUUUUCAACAGCUCGCAGUCAAG | 0.102
GGUCACGUCUCAAUCAACUCUAUCUCAGGAGUUUACUCCUGUUUUGUCAACAGCUCGCAGUCAAG | 0.0356
GGUCACGUCUCAAUCAACUCUAUCUCCAGGGAAAGCCCUGGUUUAUUCAACAGCUCGCAGUCAAG | -0.092
GGUCACGUCUCAAUCAACUCAUCUUCAGGAGUUUGCUCCUGUUUAUUCAACAGCUCGCAGUCAAG | 0.0984
GGUCACGUCUCAAUCAACUCAUCGUCAGGAGUUUACUCCUGUUUUUUCAACAGCUCGCAGUCAAG | -0.13
GGUCACGUCUCAAUCAACUCUAUCUCCAGGGAAAACCCUGGCAUUCUCAACAGCUCGCAGUCAAG | 0.0773
GGUCACGUCUCAAUCAACUCUUUUCCAGGAGUUUACUCCUGUUUACUCAACAGCUCGCAGUCAAG | 0.254
GGUCACGUCUCAAUCAACUCAUUUCCCAGGGAAACCCCUGGUAAUUUCAACAGCUCGCAGUCAAG | 0.219
GGUCACGUCUCAAUCAACUCUUCGGAGGGGGGGAAAACCCCUUUACCCUCACAAUCAACAGCUCGCAGUCAAG | 0.00953
GGUCACGUCUCAAUCAACUCUUCCGAGGGGGGGAAAACCCCUUUACCCUCAAUCUCAACAGCUCGCAGUCAAG | -0.107
GGUCACGUCUCAAUCAACUCUAUAGAGGGGGGGAAAACCCCUUUGCCCUCACCAUCAACAGCUCGCAGUCAAG | -0.034
GGUCACGUCUCAAUCAACUCUUUUUCCAGGGAAAUCCCUGGCUAUCUCAACAGCUCGCAGUCAAG | -0.0403
GGUCACGUCUCAAUCAACUCAUCCCCCAGGGAAAGCCCUGGCAAACUCAACAGCUCGCAGUCAAG | -0.0744
GGUCACGUCUCAAUCAACUCUUCGUCCAGGGAAAGCCCUGGUAUAUUCAACAGCUCGCAGUCAAG | 0.144
GGUCACGUCUCAAUCAACUCUAUCUCAGGAGUUUUCUCCUGCAUUUUCAACAGCUCGCAGUCAAG | -0.043
GGUCACGUCUCAAUCAACUCAUUUUCCAGGGAAAUCCCUGGUAUUUUCAACAGCUCGCAGUCAAG | -0.0926
GGUCACGUCUCAAUCAACUCUUAAGAGGGGGGGAAAACCCCUUUGCCCUCCAUGUCAACAGCUCGCAGUCAAG | -0.0374

Sequence | binding signal (log2 fold change)
GGUCACGUCUCAAUCAACUCAUUUUCCAGGGAAAUCCCUGGUAAUCUCAACAGCUCGCAGUCAAG | 0.0667
GGUCACGUCUCAAUCAACUCAUUCCCAGGAGUUUCCUCCUGUUUAGUCAACAGCUCGCAGUCAAG | 0.0958
GGUCACGUCUCAAUCAACUCUAUCCCCAGGGAAAACCCUGGUUUUCUCAACAGCUCGCAGUCAAG | -0.131
GGUCACGUCUCAAUCAACUCAUCCCCAGGAGUUUCCUCCUGUUAAGUCAACAGCUCGCAGUCAAG | 0.253
GGUCACGUCUCAAUCAACUCUUUUCCAGGAGUUUCCUCCUGCUUUCUCAACAGCUCGCAGUCAAG | 0.156
GGUCACGUCUCAAUCAACUCAUUCCCCAGGGAAAACCCUGGCAAUCUCAACAGCUCGCAGUCAAG | 0.166
GGUCACGUCUCAAUCAACUCUUCCUCCAGGGAAACCCCUGGCAUACUCAACAGCUCGCAGUCAAG | -0.258
GGUCACGUCUCAAUCAACUCCCUCGAGGGGGGGAAAACCCCUUUACCCUCAUCUUCAACAGCUCGCAGUCAAG | -0.249
GGUCACGUCUCAAUCAACUCAUCUUCCAGGGAAACCCCUGGCUAAUUCAACAGCUCGCAGUCAAG | 0.05
GGUCACGUCUCAAUCAACUCUUUUUCAGGAGUUUACUCCUGUAAUGUCAACAGCUCGCAGUCAAG | 0.0179
GGUCACGUCUCAAUCAACUCAUCUUCCAGGGAAACCCCUGGUAAAUUCAACAGCUCGCAGUCAAG | -0.128
GGUCACGUCUCAAUCAACUCUUUUUCCAGGGAAAGCCCUGGCUUUCUCAACAGCUCGCAGUCAAG | -0.116
GGUCACGUCUCAAUCAACUCUAUUUCCAGGGAAAACCCUGGCAUUUUCAACAGCUCGCAGUCAAG | -0.176
GGUCACGUCUCAAUCAACUCUUCGCCAGGAGUUUCCUCCUGUAUUUUCAACAGCUCGCAGUCAAG | 0.273
GGUCACGUCUCAAUCAACUCUUUCUCAGGAGUUUACUCCUGCAAUCUCAACAGCUCGCAGUCAAG | 0.143
GGUCACGUCUCAAUCAACUCUUCCCCCAGGGAAAACCCUGGUUAACUCAACAGCUCGCAGUCAAG | -0.0758
GGUCACGUCUCAAUCAACUCACACGAGGGGGGGAAAACCCCUUUACCCUCACUCUCAACAGCUCGCAGUCAAG | 0.143
GGUCACGUCUCAAUCAACUCUUCGUCAGGAGUUUACUCCUGUAAUUUCAACAGCUCGCAGUCAAG | -0.185
